{"source": "paper PMC5515408", "note": "Some of the results follow. At the low end of the ranking the order means little."}
{"system": "MYC (p64) + MAX (p21), in MYC:MAX", "assay": "protein-binding microarray (anti-MAX antibody)", "settings": "PBM: 15 mM Tris-HCl pH 7.5, 100 mM KCl, 0.075% NP40, 7.5 mM beta-mercaptoethanol, 375 ng/ul BSA, 8 ng/ul poly(dA-dT):(dA-dT), 550 ng complex, 60 min, room …; high values mean tight binding; double strand, one strand shown; sequences stand for … in CCGGC…TTAATAGCTAAGATTACTATATCGACG"}
{"sequence": "TGACACTGGGTA", "binding signal (log2 normalized fluorescence)": 0.11}
{"sequence": "TGAAGCTTAGTA", "binding signal (log2 normalized fluorescence)": -0.17}
{"sequence": "TGAATGGCAGTA", "binding signal (log2 normalized fluorescence)": 0.259}
{"sequence": "TGATACCGTGTA", "binding signal (log2 normalized fluorescence)": 0.222}
{"sequence": "TGAGACAATGTA", "binding signal (log2 normalized fluorescence)": 0.089}
{"sequence": "TGAGACTGCGTA", "binding signal (log2 normalized fluorescence)": 0.0741}
{"sequence": "TGATAATCCGTA", "binding signal (log2 normalized fluorescence)": -0.0325}
{"sequence": "TGATTTACCGTA", "binding signal (log2 normalized fluorescence)": 0.118}
{"sequence": "TGAAGTTTTGTA", "binding signal (log2 normalized fluorescence)": -0.0355}
{"sequence": "GCTCACGTGGTA", "binding signal (log2 normalized fluorescence)": 0.815}
{"sequence": "TGAGTCTCAGTA", "binding signal (log2 normalized fluorescence)": -0.0895}
{"sequence": "TGAGAAGTGGTA", "binding signal (log2 normalized fluorescence)": 0.121}
{"sequence": "TGAGCGTTAGTA", "binding signal (log2 normalized fluorescence)": 0.0906}
{"sequence": "TGGCACCCGGTA", "binding signal (log2 normalized fluorescence)": 0.242}
{"sequence": "TGACACGGGGAA", "binding signal (log2 normalized fluorescence)": 0.402}
{"sequence": "TGACATGTTGTA", "binding signal (log2 normalized fluorescence)": 0.542}
{"sequence": "TGGCACGTGGGA", "binding signal (log2 normalized fluorescence)": 0.708}
{"sequence": "TGAACGCCAGTA", "binding signal (log2 normalized fluorescence)": 0.226}
{"sequence": "TGAACAAACGTA", "binding signal (log2 normalized fluorescence)": 0.0654}
{"sequence": "TGAGCGCTAGTA", "binding signal (log2 normalized fluorescence)": 0.11}
{"sequence": "TGAGGCTGTGTA", "binding signal (log2 normalized fluorescence)": -0.0862}
{"sequence": "TGAGGTCAGGTA", "binding signal (log2 normalized fluorescence)": -0.0439}
{"sequence": "TGAGACCTTGTA", "binding signal (log2 normalized fluorescence)": 0.0603}
{"sequence": "TGAACTTAGGTA", "binding signal (log2 normalized fluorescence)": 0.164}
{"sequence": "TGAAGGATTGTA", "binding signal (log2 normalized fluorescence)": 0.123}
{"sequence": "TGACACGGACTA", "binding signal (log2 normalized fluorescence)": 0.356}
{"sequence": "TGAGGCACAGTA", "binding signal (log2 normalized fluorescence)": 0.131}
{"sequence": "TCACACATCGTA", "binding signal (log2 normalized fluorescence)": 0.444}
{"sequence": "TGACCGAGAGTA", "binding signal (log2 normalized fluorescence)": 0.109}
{"sequence": "TGACAGGGTGTA", "binding signal (log2 normalized fluorescence)": 0.0932}
{"sequence": "TGAAGAACAGTA", "binding signal (log2 normalized fluorescence)": -0.132}
{"sequence": "TGACGAGCCGTA", "binding signal (log2 normalized fluorescence)": 0.0186}
{"sequence": "CTACACGTGGTG", "binding signal (log2 normalized fluorescence)": 0.779}
{"sequence": "TGAAGGGCTGTA", "binding signal (log2 normalized fluorescence)": -0.0586}
{"sequence": "TGACCGCGGGTA", "binding signal (log2 normalized fluorescence)": 0.33}
{"sequence": "TGAATCTCGGTA", "binding signal (log2 normalized fluorescence)": 0.0404}
{"sequence": "TGAGGGTGTGTA", "binding signal (log2 normalized fluorescence)": 0.248}
{"sequence": "TGAACACCTGTA", "binding signal (log2 normalized fluorescence)": 0.407}
{"sequence": "TCTTACGTGGTA", "binding signal (log2 normalized fluorescence)": 0.358}
{"sequence": "TGATTGTTAGTA", "binding signal (log2 normalized fluorescence)": -0.0854}
{"sequence": "TGACTGACTGTA", "binding signal (log2 normalized fluorescence)": 0.111}
{"sequence": "TGACAGGGCGTA", "binding signal (log2 normalized fluorescence)": 0.0524}
{"sequence": "GGAAACGGGGTA", "binding signal (log2 normalized fluorescence)": 0.475}
{"sequence": "TGACACGTAGTT", "binding signal (log2 normalized fluorescence)": 0.406}
{"sequence": "TGATACCGAGTA", "binding signal (log2 normalized fluorescence)": -0.0874}
{"sequence": "TGACGCTCGGTA", "binding signal (log2 normalized fluorescence)": 0.159}
{"sequence": "TGACCAGTGGTA", "binding signal (log2 normalized fluorescence)": 0.215}
{"sequence": "TGACACCTGCTA", "binding signal (log2 normalized fluorescence)": 0.552}
{"sequence": "TGATAGTATGTA", "binding signal (log2 normalized fluorescence)": 0.26}
{"sequence": "TGATACCAAGTA", "binding signal (log2 normalized fluorescence)": -0.101}
{"sequence": "TGAGGCAGGGTA", "binding signal (log2 normalized fluorescence)": -0.0778}
{"sequence": "TGACTCGTGGCA", "binding signal (log2 normalized fluorescence)": 0.584}
{"sequence": "TGACACCTGGTA", "binding signal (log2 normalized fluorescence)": 0.489}
{"sequence": "TGACCCACTGTA", "binding signal (log2 normalized fluorescence)": 0.259}
{"sequence": "TGAAAGCGTGTA", "binding signal (log2 normalized fluorescence)": 0.399}
{"sequence": "TGATATGAAGTA", "binding signal (log2 normalized fluorescence)": -0.24}
{"sequence": "TGATCTAGCGTA", "binding signal (log2 normalized fluorescence)": -0.0403}
{"sequence": "TGACTGTACGTA", "binding signal (log2 normalized fluorescence)": 0.279}
{"sequence": "TGAAATTGGGTA", "binding signal (log2 normalized fluorescence)": -0.212}
{"sequence": "TGACACTTGGAA", "binding signal (log2 normalized fluorescence)": 0.157}
{"sequence": "TGATCTCGAGTA", "binding signal (log2 normalized fluorescence)": 0.17}
{"sequence": "TGACTCCATGTA", "binding signal (log2 normalized fluorescence)": 0.336}
{"sequence": "TGATTTTTAGTA", "binding signal (log2 normalized fluorescence)": -0.146}
{"sequence": "TAACGGGTGGTA", "binding signal (log2 normalized fluorescence)": 0.318}
{"sequence": "TGATTTGACGTA", "binding signal (log2 normalized fluorescence)": -0.0186}
{"sequence": "TGACTGCATGTA", "binding signal (log2 normalized fluorescence)": 0.456}
{"sequence": "GGAGACGATGTT", "binding signal (log2 normalized fluorescence)": 0.0761}
{"sequence": "TGAACACAAGTA", "binding signal (log2 normalized fluorescence)": 0.488}
{"sequence": "TTACGCGTGGTC", "binding signal (log2 normalized fluorescence)": 0.702}
{"sequence": "TGAATAGCGGTA", "binding signal (log2 normalized fluorescence)": -0.233}
{"sequence": "CAAGTTACTAAA", "binding signal (log2 normalized fluorescence)": 0.0735}
{"sequence": "TGACAAATAGTA", "binding signal (log2 normalized fluorescence)": -0.318}
{"sequence": "TGACCCGAAGTA", "binding signal (log2 normalized fluorescence)": 0.0364}
{"sequence": "TGACGACCAGTA", "binding signal (log2 normalized fluorescence)": 0.154}
{"sequence": "TGAGGAATGGTA", "binding signal (log2 normalized fluorescence)": 0.136}
{"sequence": "TGAGACTGTGTA", "binding signal (log2 normalized fluorescence)": 0.0362}
{"sequence": "TGACGGATAGTA", "binding signal (log2 normalized fluorescence)": -0.0182}
{"sequence": "TGAGCCGGCGTA", "binding signal (log2 normalized fluorescence)": -0.213}
{"sequence": "TGAAGTTACGTA", "binding signal (log2 normalized fluorescence)": 0.0936}
{"sequence": "TGACGATAAGTA", "binding signal (log2 normalized fluorescence)": 0.0501}
{"sequence": "TGATTTTTCGTA", "binding signal (log2 normalized fluorescence)": -0.212}
{"sequence": "TGATGAGTCGTA", "binding signal (log2 normalized fluorescence)": -0.0527}
{"sequence": "TGACGGGATGTA", "binding signal (log2 normalized fluorescence)": 0.116}
{"sequence": "TGACCAATAGTA", "binding signal (log2 normalized fluorescence)": 0.0118}
{"sequence": "TGACCATAGGTA", "binding signal (log2 normalized fluorescence)": 0.235}
{"sequence": "TGACACGCGATT", "binding signal (log2 normalized fluorescence)": 0.502}
{"sequence": "TGATTGACCGTA", "binding signal (log2 normalized fluorescence)": -0.0489}
